T1: hFAP-Fc (human, UniProt Q12884 26-760)
T1 construct: extracellular domain; Made in house in Expi293-F cells; also called hFAP-Fc-His; human FAP; not shown: IgG1-Fc
T1 sequence (looked up): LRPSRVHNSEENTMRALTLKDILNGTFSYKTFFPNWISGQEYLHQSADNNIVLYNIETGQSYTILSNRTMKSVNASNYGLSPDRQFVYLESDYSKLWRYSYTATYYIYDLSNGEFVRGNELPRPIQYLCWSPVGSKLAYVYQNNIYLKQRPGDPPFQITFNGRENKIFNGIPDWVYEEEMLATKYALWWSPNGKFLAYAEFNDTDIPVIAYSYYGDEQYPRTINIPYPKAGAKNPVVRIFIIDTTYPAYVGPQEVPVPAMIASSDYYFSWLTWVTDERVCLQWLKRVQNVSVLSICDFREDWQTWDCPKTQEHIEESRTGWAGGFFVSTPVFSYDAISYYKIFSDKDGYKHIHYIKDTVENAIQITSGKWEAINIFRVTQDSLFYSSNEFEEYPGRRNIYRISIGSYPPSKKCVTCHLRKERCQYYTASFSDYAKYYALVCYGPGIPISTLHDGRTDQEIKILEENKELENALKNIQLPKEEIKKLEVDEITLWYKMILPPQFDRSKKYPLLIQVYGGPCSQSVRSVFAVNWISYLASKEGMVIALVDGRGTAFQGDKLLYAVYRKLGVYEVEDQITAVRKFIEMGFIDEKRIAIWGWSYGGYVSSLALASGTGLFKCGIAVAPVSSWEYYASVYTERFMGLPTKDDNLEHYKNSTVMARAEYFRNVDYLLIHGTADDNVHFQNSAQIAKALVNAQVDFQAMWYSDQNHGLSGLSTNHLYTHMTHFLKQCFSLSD

B1: Affilin®-217966 (designed binder)
chain: MQIFVKTLTPEWHIIGKTITLEVEPSDTIENVKAKIQDKEGIPPDQQNLAWAGKQLEDGRTLSDYNINHGARLMLKLALRAA
notes: Ubiquitin mutein
B2: Affilin®-220198 (designed binder)
chain: MQIFVKTLTEDWFVYGKTITLEVEPSDTIENVKAKIQDKEGIPPDQQRLAWAGKQLEDGRTLSDYNIQGGSMLMLKLHLRAA
notes: Ubiquitin mutein
B3: Affilin®-217862 (designed binder)
chain: MQIFVWTKDYKGITLEVEPSDTIENVKAKIQDKEGIPPDQQTLTWKGKQLEDGRTLSDYNIMVWPNLWLRLRAA
notes: Ubiquitin mutein
B4: Affilin®-220134 (designed binder)
chain: MQIFVWTRRNKRITLEVEPSDTIENVKAKIQDKEGIPPDQQHLTWKGKQLEDGRTLSDYNISEWPNLFLRLNLRAA
notes: Ubiquitin mutein
B5: Affilin®-217917 (designed binder)
chain: MQIFVWTVVQKPITLEVEPSDTIENVKAKIQDKEGIPPDQQKLHWRGKQLEDGRTLSDYNIPFFPHLILMLQLRAA
notes: Ubiquitin mutein
B6: Affilin®-219750 (designed binder)
chain: MQIFVKTLTRDYHRFGKTITLEVEPSDTIENVKAKIQDKEGIPPDQQRLAWAGKQLEDGRTLSDYNIHDGHTLKLKLLLRAA
notes: Ubiquitin mutein
B7: Affilin®-217993 (designed binder)
chain: MQIFVWTITGKTITLEVEPSDTIENVKAKIQDKEGIPPDQQRLIWAGKQLEDGRTLSDYNIRSWPNLHLVLRLRAAMQIFVHTATGKTITLEVEPSDTIENVKAKIQDKEGIPPDQQRLIWAGKQLEDGRTLSDYNIEDFPPLHLVLRLRAASAWSHPQFEK
notes: Ubiquitin mutein
B8: Affilin®-223054 (designed binder)
chain: MQIFVWTMWHKKITLEVEPSDTIENVKAKIQDKEGIPPDQQFLVWKGKQLEDGRTLSDYNISQWPNLWLGLKLRAA
notes: Ubiquitin mutein
B9: Affilin®-223019 (designed binder)
chain: MQIFVWTKTQKLITLEVEPSDTIENVKAKIQDKEGIPPDQQALFWKGKQLEDGRTLSDYNIWSWPNLWLELMLRAA
notes: Ubiquitin mutein

How the values were obtained:
[1] = biological target: T2, hCD26 expressed on HEK293-hCD26 cells (human, UniProt P27487 1-766); test: flow cytometry on HEK293-hCD26 cells
T2 construct: whole, on cells
Experimental: (§1) Flow cytometry was used to analyze the interaction of FAP binding proteins with cell surface-exposed hFAP and mFAP. FAP overexpressing human embryonic kidney cell line HEK293, CD26-overexpressing HEK293-cells, native FAP expressing cell line Wi38 and empty vector control HEK293-pEntry cells were used. The anti-hFAP antibody (R&D Systems, MAB3715-100) with a concentration of 1 μg/ml in combination with anti-mouse-IgG-Alexa488 (Invitrogen, A10680) with a 1:1000 dilution was used as positive control for hFAP-expressing cells. Anti-mFAP antibody (R&D Systems, MAB9727) with a concentration of 1 μg/ml in combination with anti-rat-IgG-Alexa488 (Invitrogen, A11006) with a dilution of 1:1000 was used as positive control for mFAP-expressing cells.
(§2) Cells were trypsinized and resupended in medium containing FCS, washed and stained in pre-cooled FACS blocking buffer (3% FCS/PBS). A suspension with a cell concentration of 1×10⁶ cells/ml was prepared for cell staining and filled with 100 μl/well into a 96 well plate (Greiner) in triplicate for each cell line.
(§3) Affilin® proteins were tested with a concentration of 1 μM, 100 nM, 10 nM, or 1 nM on FAP expressing cells HEK293-hFAP, HEK293-mFAP and Wi38-cells. To exclude an unspecific binding, Affilin® proteins were also incubated on CD26 expressing cells HEK293-hCD26 and HEK293-mCD26 and control cells HEK293-pEntry with the same concentrations. […] Supernatants were removed after 45 min, cells were washed in blocking buffer and 100 μl/well rabbit anti-StrepTag antibody (GenScript; A00626), 1:300 diluted in FACS blocking buffer were added. After removal of the primary antibody, goat anti-rabbit-IgG-Alexa Fluor 488 antibody (Invitrogen; A11008) was applied in a 1:1000 dilution. Flow cytometry measurement was conducted on the Guava easyCyte 5HT device from Merck-Millipore at excitation wavelength 488 nm and emission wavelength 525/30 nm.

[2] = biological target: T3, mCD26 expressed on HEK293-mCD26 cells (mouse, UniProt P28843 1-760); test: flow cytometry on HEK293-mCD26 cells
T3 construct: whole, on cells
Experimental: as §1, §2, §3

hCD26-Fc = biological target: T4, hCD26-Fc (human, UniProt P27487 29-766, limits assumed); test: SPR, Fc-tagged CD26 captured on protein A
Sequence of hCD26-Fc (P27487 29-766 limits assumed): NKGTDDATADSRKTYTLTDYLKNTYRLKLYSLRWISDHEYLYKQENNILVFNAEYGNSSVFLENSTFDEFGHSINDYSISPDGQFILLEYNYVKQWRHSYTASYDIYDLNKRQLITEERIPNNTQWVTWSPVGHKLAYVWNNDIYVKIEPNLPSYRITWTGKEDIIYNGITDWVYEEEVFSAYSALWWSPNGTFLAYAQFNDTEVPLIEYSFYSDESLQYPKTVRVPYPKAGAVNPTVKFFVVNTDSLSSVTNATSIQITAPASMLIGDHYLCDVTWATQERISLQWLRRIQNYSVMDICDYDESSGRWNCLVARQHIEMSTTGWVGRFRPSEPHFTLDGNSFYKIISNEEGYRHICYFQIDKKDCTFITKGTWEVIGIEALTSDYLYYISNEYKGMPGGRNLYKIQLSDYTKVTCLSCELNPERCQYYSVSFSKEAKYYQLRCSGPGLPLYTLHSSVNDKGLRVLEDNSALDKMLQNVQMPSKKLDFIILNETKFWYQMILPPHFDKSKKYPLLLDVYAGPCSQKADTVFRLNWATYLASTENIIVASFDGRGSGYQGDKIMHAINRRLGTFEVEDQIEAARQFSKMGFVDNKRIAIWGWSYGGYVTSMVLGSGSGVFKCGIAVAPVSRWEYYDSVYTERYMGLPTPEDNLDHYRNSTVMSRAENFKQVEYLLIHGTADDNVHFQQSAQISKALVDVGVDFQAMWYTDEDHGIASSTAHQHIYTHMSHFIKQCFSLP
T4 construct: Off-target in SPR; the in-house construct is not described further; also called hCD26-Fc-His; not shown: Fc
Experimental: (§4) Recombinant protein A was immobilized on a High Capacity Amine sensor chip (Bruker) after NHS/EDC activation resulting in approx. 2000 RU with a Sierra SPR-32 system (Bruker). The chip was equilibrated with SPR running buffer (PBS 0.05%, Tween pH 7.3). Injection of ethanolamine after ligand immobilization was used to block unreacted NHS groups. The Fc-tagged FAP and CD26 target molecules were injected with 60 nM followed by the injection of FAP binding proteins. Upon binding, target analyte was accumulated on the surface increasing the refractive index. This change in the refractive index was measured in real time and plotted as response or resonance units versus time. The FAP binding proteins were applied to the chip in serial dilutions with a flow rate of 30 μl/min. The association was performed for 120 seconds and the dissociation for 180 seconds. After each run, the chip surface was regenerated with 30 μl regeneration buffer (10 mM glycine pH 2.0) and equilibrated with running buffer. Binding studies were carried out by the use of the Sierra SPR-32 system (Bruker); data evaluation was operated via the Sierra Analyser software, provided by the manufacturer, by the use of the Langmuir 1:1 model (RI=0). Evaluated dissociation constants (KD) were standardized against the immobilized protein and indicated.

mCD26-Fc = biological target: T5, mCD26-Fc (mouse, UniProt P28843 29-760, limits assumed); test: SPR, Fc-tagged CD26 captured on protein A
Sequence of mCD26-Fc (P28843 29-760 limits assumed): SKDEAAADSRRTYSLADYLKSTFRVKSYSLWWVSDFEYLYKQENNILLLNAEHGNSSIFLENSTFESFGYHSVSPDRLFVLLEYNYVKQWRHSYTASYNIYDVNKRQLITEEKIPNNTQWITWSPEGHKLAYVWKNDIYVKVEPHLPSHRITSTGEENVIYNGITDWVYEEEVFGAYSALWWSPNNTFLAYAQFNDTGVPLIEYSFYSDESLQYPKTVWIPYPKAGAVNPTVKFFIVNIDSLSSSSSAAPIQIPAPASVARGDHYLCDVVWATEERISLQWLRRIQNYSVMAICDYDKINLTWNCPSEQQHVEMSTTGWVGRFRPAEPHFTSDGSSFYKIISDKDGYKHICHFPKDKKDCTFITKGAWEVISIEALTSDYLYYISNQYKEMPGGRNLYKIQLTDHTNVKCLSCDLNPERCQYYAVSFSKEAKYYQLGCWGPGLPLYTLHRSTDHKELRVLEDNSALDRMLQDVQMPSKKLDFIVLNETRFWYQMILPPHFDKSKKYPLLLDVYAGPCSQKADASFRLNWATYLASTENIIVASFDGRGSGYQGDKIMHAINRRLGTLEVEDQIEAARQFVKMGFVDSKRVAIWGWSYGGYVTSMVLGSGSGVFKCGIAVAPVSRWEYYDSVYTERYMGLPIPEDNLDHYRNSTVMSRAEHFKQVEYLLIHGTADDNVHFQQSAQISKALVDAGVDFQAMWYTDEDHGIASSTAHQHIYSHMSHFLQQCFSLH
T5 construct: Off-target in SPR; construct not described further; also called mCD26-Fc-His; not shown: Fc
Experimental: as §4

hFAP-Fc [3] = biological target: T1, hFAP-Fc; test: SPR (Sierra SPR-32), hFAP-Fc captured on protein A, 1:1 Langmuir
Experimental: as §4

hFAP-Fc [4] = biological target: T1, hFAP-Fc; test: ELISA on coated hFAP-Fc; Affilin in mouse serum, 0 h
Experimental: (§5) High binding plates (Greiner, 781061) were immobilized with 2.5 μg/ml hFAP-Fc over night at 4° C. Dilution series of 3 µM to 0.07 PM of Affilin® proteins were incubated in 100% human serum or 100% mouse serum for 24 h at 37° C.
(§6) ELISA-plates were washed three times with PBST (PBS+ 0.1% Tween) and blocked with 3% BSA/0.5% Tween/PBS 1 h at rt. After preincubation for 0 h or 24 h in the presence of serum the dilution series were incubated on ELISA-plates for 30 min at room temperature (rt). Wells were washed with PBST and incubated with biotinylated anti-ubiquitin-antibody (1:300) for 30 min at rt. The binding was visualized with Streptavidin-HRP (1:5.000). […] ELISA analysis confirmed the high stability of FAP binding proteins in serum.

hFAP-Fc [5] = biological target: T1, hFAP-Fc; test: ELISA on coated hFAP-Fc; Affilin in human serum, 24 h at 37° C.
Experimental: as §5, §6

hFAP-Fc [6] = biological target: T1, hFAP-Fc; test: ELISA on coated hFAP-Fc; Affilin in mouse serum, 24 h at 37° C.
Experimental: as §5, §6

hFAP-Fc [7] = biological target: T1, hFAP-Fc; test: ELISA on coated hFAP-Fc; Affilin in human serum, 0 h
Experimental: as §5, §6

| Binder | binding result [1] | binding result [2] | binding result (hCD26-Fc) | binding result (mCD26-Fc) | Kd (hFAP-Fc [3]) | Kd (hFAP-Fc [4]) | Kd (hFAP-Fc [5]) | Kd (hFAP-Fc [6]) | Kd (hFAP-Fc [7]) |
| --- | --- | --- | --- | --- | --- | --- | --- | --- | --- |
| B1 | no binding (tested: 1 µM, 100 nM, 10 nM, or 1 nM) | no binding (tested: 1 µM, 100 nM, 10 nM, or 1 nM) | no binding | no binding | 7.8 nM | – | – | – | – |
| B2 | no binding (tested: 1 µM, 100 nM, 10 nM, or 1 nM) | no binding (tested: 1 µM, 100 nM, 10 nM, or 1 nM) | no binding | no binding | 3.3 nM | 1.5 nM | 0.4 nM | 1.9 nM | 0.5 nM |
| B3 | no binding (tested: 1 µM, 100 nM, 10 nM, or 1 nM) | no binding (tested: 1 µM, 100 nM, 10 nM, or 1 nM) | no binding | no binding | 7 nM | – | – | – | – |
| B4 | no binding (tested: 1 µM, 100 nM, 10 nM, or 1 nM) | no binding (tested: 1 µM, 100 nM, 10 nM, or 1 nM) | no binding | no binding | 1.7 nM | 0.6 nM | 0.6 nM | 0.7 nM | 0.6 nM |
| B5 | – | – | no binding | no binding | 43 nM | – | – | – | – |
| B6 | no binding (tested: 1 µM, 100 nM, 10 nM, or 1 nM) | no binding (tested: 1 µM, 100 nM, 10 nM, or 1 nM) | no binding | no binding | 6 nM | 0.4 nM | 0.4 nM | 0.5 nM | 0.3 nM |
| B7 | no binding (tested: 1 µM, 100 nM, 10 nM, or 1 nM) | no binding (tested: 1 µM, 100 nM, 10 nM, or 1 nM) | no binding | no binding | 23 nM | – | – | – | – |
| B8 | no binding (tested: 1 µM, 100 nM, 10 nM, or 1 nM) | no binding (tested: 1 µM, 100 nM, 10 nM, or 1 nM) | no binding | no binding | 2 nM | – | – | – | – |
| B9 | no binding (tested: 1 µM, 100 nM, 10 nM, or 1 nM) | no binding (tested: 1 µM, 100 nM, 10 nM, or 1 nM) | no binding | no binding | 2 nM | – | – | – | – |

— patent US20260176310A1 (NAVIGO PROTEINS, published 2026)
